# Measured values as given in the supplement of paper PMC8728848.
# This is one part of the list.
# B1: WGA (Triticum vulgare) (protein)
# chain: QRCGEQGSNMECPNNLCCSQYGYCGMGGDYCGKGCQNGACWTSKRCGSQAGGATCPNNHCCSQYGHCGFGAEYCGAGCQGGPCRADIKCGSQSGGKLCPNNLCCSQWGFCGLGSEFCGGGCQSGACSTDKPCGKDAGGRVCTNNYCCSKWGSCGIGPGYCGAGCQSGGCDAVFAGAITANSTLLAE
# Columns and labels:
# Experiment in all cases: glycan array binding signal (z-score within array); higher = stronger binding
# Conditions in all cases: glycan notation: IUPAC condensed, linker removed
# [1] = target: GlcNAc6S(b1-3)Gal(b1-4)GlcNAc
# How it was run: (§1)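 Glycan array binding is given as a within-array Z-score, which can be read as non-binding when negative. The arrays, 3228 of them, came from the Consortium for Functional Glycomics database and were retained only where the protein sequence was available. Z-scores were averaged across arrays of the same protein sequence at different concentrations or buffers and across linkers.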
# [2] = target: Kdn(a2-3)Gal(b1-3)GalNAc
# How it was run: as §1
# [3] = target: Kdn(a2-3)Gal(b1-3)GlcNAc
# How it was run: as §1
# [4] = target: Kdn(a2-3)Gal(b1-4)Glc
# How it was run: as §1
# [5] = target: Kdn(a2-3)Gal(b1-4)GlcNAc
# How it was run: as §1
# [6] = target: Kdn(a2-3)Gal(b1-4)[Fuc(a1-3)]GlcNAc
# How it was run: as §1
# [7] = target: Kdn(a2-6)Gal(b1-4)GlcNAc
# How it was run: as §1
# [8] = target: Man(a1-2)Man(a1-2)Man(a1-3)Man
# How it was run: as §1
# [9] = target: Man(a1-2)Man(a1-2)Man(a1-6)[Man(a1-3)]Man
# How it was run: as §1
# [10] = target: Man(a1-2)Man(a1-3)Man
# How it was run: as §1
# [11] = target: Man(a1-2)Man(a1-3)[Man(a1-2)Man(a1-6)]Man
# How it was run: as §1
# [12] = target: Man(a1-2)Man(a1-3)[Man(a1-2)Man(a1-6)]Man(a1-6)[Man(a1-2)Man(a1-2)Man(a1-3)]Man
# How it was run: as §1
# [13] = target: Man(a1-2)Man(a1-3)[Man(a1-2)Man(a1-6)]Man(a1-6)[Man(a1-2)Man(a1-2)Man(a1-3)]Man(b1-4)GlcNAc(b1-4)GlcNAc
# How it was run: as §1
# [14] = target: Man(a1-2)Man(a1-3)[Man(a1-6)]Man(a1-6)[Man(a1-2)Man(a1-3)]Man(b1-4)GlcNAc(b1-4)GlcNAc
# How it was run: as §1
# [15] = target: Man(a1-2)Man(a1-6)[Man(a1-3)]Man(a1-6)[Man(a1-2)Man(a1-2)Man(a1-3)]Man
# How it was run: as §1
# [16] = target: Man(a1-2)Man(a1-6)[Man(a1-3)]Man(a1-6)[Man(a1-2)Man(a1-2)Man(a1-3)]Man(b1-4)GlcNAc(b1-4)GlcNAc
# How it was run: as §1
# [17] = target: Man(a1-3)[Man(a1-6)]Man
# How it was run: as §1
# [18] = target: Man(a1-3)[Man(a1-6)]Man(a1-6)[Man(a1-2)Man(a1-3)]Man(b1-4)GlcNAc(b1-4)GlcNAc
# How it was run: as §1
# [19] = target: Man(a1-3)[Man(a1-6)]Man(a1-6)[Man(a1-3)]Man
# How it was run: as §1
# [20] = target: Man(a1-3)[Man(a1-6)]Man(a1-6)[Man(a1-3)]Man(b1-4)GlcNAc(b1-4)GlcNAc
# How it was run: as §1
# [21] = target: Man(a1-3)[Man(a1-6)]Man(b1-4)GlcNAc(b1-4)GlcNAc
# How it was run: as §1
# [22] = target: Man(a1-3)[Man(a1-6)]Man(b1-4)GlcNAc(b1-4)[Fuc(a1-6)]GlcNAc
# How it was run: as §1
# [23] = target: Man(a1-6)Man
# How it was run: as §1
# [24] = target: Man(b1-4)GlcNAc
# How it was run: as §1
# [25] = target: MurNAc(b1-4)GlcNAc
# How it was run: as §1
# [26] = target: Neu5Ac(a2-3)Gal
# How it was run: as §1
# [27] = target: Neu5Ac(a2-3)Gal(b1-3)GalNAc
# How it was run: as §1
# [28] = target: Neu5Ac(a2-3)Gal(b1-3)GalNAc(b1-3)Gal(a1-4)Gal(b1-4)Glc
# How it was run: as §1
# [29] = target: Neu5Ac(a2-3)Gal(b1-3)GalNAc(b1-3)Gal(b1-4)GlcNAc
# How it was run: as §1
# [30] = target: Neu5Ac(a2-3)Gal(b1-3)GalNAc(b1-4)Gal(b1-4)Glc
# How it was run: as §1
# [31] = target: Neu5Ac(a2-3)Gal(b1-3)GalNAc(b1-4)[Neu5Ac(a2-3)]Gal(b1-4)Glc
# How it was run: as §1
# [32] = target: Neu5Ac(a2-3)Gal(b1-3)GalNAc(b1-4)[Neu5Ac(a2-8)Neu5Ac(a2-3)]Gal(b1-4)Glc
# How it was run: as §1
# [33] = target: Neu5Ac(a2-3)Gal(b1-3)GalNAc6S
# How it was run: as §1
# [34] = target: Neu5Ac(a2-3)Gal(b1-3)GlcNAc
# How it was run: as §1
# [35] = target: Neu5Ac(a2-3)Gal(b1-3)GlcNAc(b1-2)Man
# How it was run: as §1
# [36] = target: Neu5Ac(a2-3)Gal(b1-3)GlcNAc(b1-2)Man(a1-3)[GlcNAc(b1-4)][Neu5Ac(a2-3)Gal(b1-3)GlcNAc(b1-2)Man(a1-6)]Man(b1-4)GlcNAc(b1-4)GlcNAc
# How it was run: as §1
# [37] = target: Neu5Ac(a2-3)Gal(b1-3)GlcNAc(b1-2)Man(a1-3)[Neu5Ac(a2-3)Gal(b1-3)GlcNAc(b1-2)Man(a1-6)]Man(b1-4)GlcNAc(b1-4)GlcNAc
# How it was run: as §1
# [38] = target: Neu5Ac(a2-3)Gal(b1-3)GlcNAc(b1-2)[Neu5Ac(a2-3)Gal(b1-3)GlcNAc(b1-4)]Man(a1-6)[Neu5Ac(a2-3)Gal(b1-3)GlcNAc(b1-2)Man(a1-3)]Man(b1-4)GlcNAc(b1-4)GlcNAc
# How it was run: as §1
# [39] = target: Neu5Ac(a2-3)Gal(b1-3)GlcNAc(b1-3)Gal(b1-3)GlcNAc
# How it was run: as §1
# [40] = target: Neu5Ac(a2-3)Gal(b1-3)GlcNAc(b1-3)Gal(b1-4)GlcNAc
# How it was run: as §1
# [41] = target: Neu5Ac(a2-3)Gal(b1-3)GlcNAc(b1-3)GalNAc
# How it was run: as §1
# [42] = target: Neu5Ac(a2-3)Gal(b1-3)GlcNAc(b1-4)Gal(b1-4)Glc
# How it was run: as §1
binder,measurement,setting,value
B1,glycan array binding signal (z-score),[1],0.189
same,glycan array binding signal (z-score),[2],-0.314
same,glycan array binding signal (z-score),[3],-0.378
same,glycan array binding signal (z-score),[4],-0.326
same,glycan array binding signal (z-score),[5],-0.292
same,glycan array binding signal (z-score),[6],-0.312
same,glycan array binding signal (z-score),[7],-0.324
same,glycan array binding signal (z-score),[8],-0.378
same,glycan array binding signal (z-score),[9],-0.343
same,glycan array binding signal (z-score),[10],-0.347
same,glycan array binding signal (z-score),[11],-0.372
same,glycan array binding signal (z-score),[12],-0.337
same,glycan array binding signal (z-score),[13],-0.435
same,glycan array binding signal (z-score),[14],-0.475
same,glycan array binding signal (z-score),[15],-0.334
same,glycan array binding signal (z-score),[16],-0.434
same,glycan array binding signal (z-score),[17],-0.371
same,glycan array binding signal (z-score),[18],-0.207
same,glycan array binding signal (z-score),[19],-0.305
same,glycan array binding signal (z-score),[20],-0.472
same,glycan array binding signal (z-score),[21],-0.188
same,glycan array binding signal (z-score),[22],-0.358
same,glycan array binding signal (z-score),[23],-0.308
same,glycan array binding signal (z-score),[24],-0.365
same,glycan array binding signal (z-score),[25],1.9
same,glycan array binding signal (z-score),[26],-0.347
same,glycan array binding signal (z-score),[27],-0.304
same,glycan array binding signal (z-score),[28],-0.306
same,glycan array binding signal (z-score),[29],1.67
same,glycan array binding signal (z-score),[30],-0.391
same,glycan array binding signal (z-score),[31],-0.364
same,glycan array binding signal (z-score),[32],-0.347
same,glycan array binding signal (z-score),[33],-0.294
same,glycan array binding signal (z-score),[34],-0.219
same,glycan array binding signal (z-score),[35],-0.293
same,glycan array binding signal (z-score),[36],-0.33
same,glycan array binding signal (z-score),[37],-0.307
same,glycan array binding signal (z-score),[38],-0.375
same,glycan array binding signal (z-score),[39],-0.327
same,glycan array binding signal (z-score),[40],0.549
same,glycan array binding signal (z-score),[41],-0.309
same,glycan array binding signal (z-score),[42],-0.334
